The chains are these.
B1: GBRAP_150_3901 (protein)
chain: DLEELLTLVSTAIDLLEAILDGEYSLLPHAIKVLKAALEESKEISEEVKELAEKALEEAEKAKKLLEEGGEQKEIDEAVKKALELAEKLEKLIEELIKKK
B2: GBRAP_128_3343 (protein)
chain: VDEEKLEEIEEIAKAMIEADDETAKKLAKELMEKLVELSLEEVEKAAEIIKELLPELSAEHLEILADELREYRPKFSPEKALIVNELEVEALNEAVEKEE
B3: GBRAP_137_3626 (protein)
chain: ATVHITVEHYEDVVRITVRLEDAELAEAVAELVLDVAHEHGALAVSIELEEDGSLVAEIWVPRDRAQALLDALVRALTEELGLTVVVTDADTGETRTYRP
B4: GBRAP_11_2791 (protein)
chain: KKELLKKLAELLEKAAELLEQLLASSPDDKELWKKTKELLEKAKKLAKEAGDETTAELLEYAKEDLEKAQADPENRQEYLQRALALVRTAKGLVLLDIEE
B5: GBRAP_128_3494 (protein)
chain: STEAAVARTRALMAAIGEADEETAAALTREWVELLAAADPETREAMVAVAEERLPELDAEKLEVIADTLREAQPSLDPETANLVAGLQVEALNAAVEKEE
B6: GBRAP_26_5448 (protein)
chain: IEEKLKELLEALKALADELADPELAALLKTEFDNIIALAELELEEAEGDKEKQLKVVEDMKKDILEAAKDLGVPADTLAKIEKVLEEQTKKIKEEIKKLE
B7: GBRAP_78_6709 (protein)
chain: EVEELLEKAIEHLNEAAKLLVKVGTELANEALGHLVDAMTYLWEAIEEGADLELLEKAKEELEKAIELAKKLDVPEKEEILKHLEEALKLVKEAIKLVKK
B8: GBRAP_128_3354 (protein)
chain: LDEAFLARVRATVEEMLTADVETVYELTKALVAEISKASDEEKDAAFAILEEALPKFDAEKLEAIADAIEEQLPTLDEYTANLAAGVLVEALNLAEEKEE
B9: GBRAP_160_4514 (protein)
chain: SETLKRILELIEEARKRIIEVLDEGDVEAAIVTADVEFGEVIMELAEDESASDEAVDAAAKIRDELVARLRAARDASVEERKAIVEEAAKKLKEELKKLF
B10: GBRAP_52_6023 (protein)
chain: MRERLRAAVRELLALVKAGREEEARRAARELVESLDEEELELLVEALAELAAEAPPEDADAVWRLAEIVAEALEEAGRDEVLADDLEARVAAALYAALQR
B11: GBRAP_160_4004 (protein)
chain: SEKIEKLIKEIEELVEETIEWMEGLSPEERLTLVRGTVGEIIQLAIESEEVSDESEEKIAELGDETIERVEENKDASLEVWKEILEEFLEKVKKILKEDE
B12: GBRAP_160_4659 (protein)
chain: SPEIEKLKEEIKEIFDEAIEMVKGQTHEERVAVARVAVGDIILEMEESEEVSEEAVDEVDEIGRELVATLEANPDFTDEEVEALIKEALEKVLKVLEKHS
B13: GBRAP_128_3551 (protein)
chain: SVEAAVARVRELLERMKTASPEEARELAEELAAHLASLSPEARAAAVAEILERLPELSVEHLEILADVFREQRPKLDPETAEAAAEIEVEALNIAEEKEE
B14: GBRAP_150_3892 (protein)
chain: NKELALLLAEELLDLLELTLELGVDLLPQALKVAEHLLEEAKELTEELKEKAEKILKLVKEAAKLAKKGGKEEEIKKKLEEAKKLAEELIKELKKLIEEE
B15: GBRAP_128_3409 (protein)
chain: STEEKVKKAKELLEKMLTADEEEQKKLAEELAELLLESDLETVKKIVEVILEMLPKFTAEQLDILADVLREKLDKFTPEKQELVSEVIVEALNEAEELEE
B16: GBRAP_184_5225 (protein)
chain: TVVREAVEAETAEELIAKAEAVVAAAQAAGKELVLYAFGRGLSLEEVERVAAHLAALKAAGRVKDATLVVEDERTEEEVDELVAIADRHGVRLVVALRDE
B17: GBRAP_125_2988 (protein)
chain: SEEQALEDLARVLRALGFSDEDVAEAVELARRHGLRGTLYAAMLALGYDELAELVAKLTEEETREVLAAVAAYLEAHPDATPEEVIAKLTEVAKAALAKR
B18: GBRAP_128_3383 (protein)
chain: VDEEKLAKVREMVEAMVKASVEEVRKLTEEFVAFLTTLTPEEQEAAVAIAEEMLPKLSKEKLDVVADVIEEKMPSLDEYTANLLAGLQVEALNQAVELEE
B19: GBRAP_52_6024 (protein)
chain: MREELRRRVEELLELVKAGREEEARAAARELVASLNEEELELLIEELAELARAARPEDAEAVWRLTEIIAEALEEAGVDEVLADELEARVAAALYEALQR
B20: GBRAP_26_5454 (protein)
chain: IEEAIDKAEERLLALADEVLDPEKAAALKTEILTEFEEIKEVVEAHPDDAEKIKAAVDEAVKDIKEMMDKLGVPEEAREKLTKALDEEAAKIKAAIDAAA
B21: GBRAP_43_5746 (protein)
chain: DEELVEGALDLAILMAEDPSIPEETKLKAFKAAVDLIADTGIKKTELLIEMVRALAANSSEETVKEALAHLKEKAAKSEKTKETFDAAIKALEAALAARK
B22: GBRAP_160_4041 (protein)
chain: SEKYEKLKEFAKKEFEEAKEFVEGQTVEQAANIVDVTFGNIIIEAEELGIDDEELLDKIAEIGDEAVAKLLANPNLTEEEVKEIIKEAEEKVLKAIEEAK
B23: GBRAP_184_5191 (protein)
chain: KVLEYTLKAKNLEEVKEKMKELIELAKKEKADLYLIVELEEVTEEMIKAIMEALKEIKEKGYSKNITVLLEGKMTEEQIDLALKLADEAGVKLTIALDEE
B24: GBRAP_160_4068 (protein)
chain: SEEIEKLKEEIEEIFEEAIEMMKGQSHEERVTIARVMKGEVVMLLFENESVSDEAIDEADKIMDELVATIAANPDLTDEEIEELIEEAKEKIFEVLEKKS
B25: GBRAP_52_6210 (protein)
chain: MREEARALAEELLALMKAGDREGARALARRIAEEWNEEELKIFAEEFVKLAREAAPEDFDLVFELAELIAEELLKEGRDEVLADDLLNSVAAALYEREQA
B26: GBRAP_184_5347 (protein)
chain: MVAHLTVTREEWREDREGVLERVRELLKDPNVDTLVVSLEDLSFEEAKELLEEIGEIAKELGAKNVIVHVDSDLNEEEIDELIEIADKYGVRLVISIPEE
B27: GBRAP_137_3610 (protein)
chain: AKATVTVKEYEDVVEITVKVEDPEIAEKVEEELLDIAHEVGALAVSSEKKEDGSLEIEIWVPKEKAEELLKKVIELLKKVADVTLIKELPGKTEVEEIKK
B28: GBRAP_52_6005 (protein)
chain: MREALRAQVRAALALVRAGDLDAARAAIRALVAALNEEEVRLLVEAVAELAREAPVEDADAVWRLAELLAAALEEAGYDEALADELLARVAAALYEREQR
B29: GBRAP_125_3109 (protein)
chain: SEDELLAALRALARALGFSEEEAEEAAELARRFSLRQTLYAIFLAEGEEELADLVEQLTEEQARAALAALAAWLAAHPDATKEEVLAQARAILEAELARA

In all, about 4,500 sequences were measured (“median log2 fold change of GCK-ALFA target abundance (FLAG IP / Myc IP barcode read proportion)”: median about 0.078, lowest 2% from about -0.6 on). The list shows a part of the results.

Chain of GABARAP, O95166 (O95166 whole entry, the tested form may be a part): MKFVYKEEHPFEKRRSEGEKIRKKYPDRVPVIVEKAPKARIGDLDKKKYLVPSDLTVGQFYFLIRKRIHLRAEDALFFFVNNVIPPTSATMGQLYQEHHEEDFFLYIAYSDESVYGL

The experiment has as its target GABARAP, O95166. As to the kind of experiment: median log2 fold change of GCK-ALFA target abundance (FLAG IP / Myc IP barcode read proportion) (log2 ratio); each designed protein is fused to an ALFA-tag nanobody in HEK293 cells to bring the named protein to FLAG-tagged glucokinase (GCK); Myc marks an untargeted standard; higher = target protein stabilised (more abundant). The conditions noted are these: target protein: 3xFLAG-MCP-GCK-ALFA reporter; HEK293 landing pad (RPLP). The procedure, abridged: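 Binders fused to an ALFA nanobody were recombined as a library into HEK293 landing-pad cells, which were induced with 2 μg mL^−1 doxycycline and then transfected to express a FLAG-tagged target and a Myc-tagged standard. After 48 h, circular RNA barcodes recovered by anti-FLAG and anti-Myc immunoprecipitation of lysates were reverse transcribed, amplified and sequenced. Each binder's target abundance is the median log2 ratio of FLAG to Myc barcode read proportions, from barcodes present at ≥10^−7 in both replicates, binders carrying ≥3 barcodes per replicate, a 10^−6 pseudocount and pooled replicates.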
For the molecule B1, the “median log2 fold change” value came out at 0.384.
The result for B2 reads 0.185; that for B3, -0.178.
The same measure for B4: 0.0469.
The same measure for B5: 0.441.
As for B6, the “median log2 fold change” value is -0.104.
The result for B7 reads 0.0714.
On to B8, for which the “median log2 fold change” value came to 0.0761.
The result for B9 reads 0.229.
The result for B10 reads -0.0573.
The same measure for B11: -0.827.
B12: the “median log2 fold change” value stood at 0.112.
The same measure for B13: 0.304; for B14: -0.0674.
The same measure for B15: 0.298; for B16: -0.0185; for B17: 0.0759.
As to B18, the “median log2 fold change” value came out at 0.206.
The same measure for B19: -0.169; for B20: 0.241.
The result for B21 reads 0.165; that for B22, -0.0514; that for B23, 0.103.
The same measure for B24: -0.101; for B25: 0.029; for B26: 0.025.
For the molecule B27, the “median log2 fold change” value was found to be 0.184.
The same measure for B28: 0.108; for B29: -0.77.

The values are drawn from the supplement of paper PMC12632987.
